The record followed here is the supplement of paper PMC12645437, “Orthogonal IMiD-Degron Pairs Induce Selective Protein Degradation in Cells” (ACS Chemical Biology, 2025).

Some of the results follow.

The labels stand for the following.
B1: Q9UKT9 (peptide)
chain: FWCDQCGAYFTQKGNLLRHIKL
B2: Q9UKT9 (peptide)
chain: FWCDVCGALFTQKGNLLRHIKL
B3: Q9UKT9 (peptide)
chain: FYCEICGHSFTQKGNLLRHIKL
B4: Q9UKT9 (peptide)
chain: FACPICGAAFTQKGNLLRHIKL
B5: Q9UKT9 (peptide)
chain: FRCPVCGACFTQKGNLLRHIKL
B6: Q9UKT9 (peptide)
chain: FNCPQCGACFTQKGNLLRHIKL
B7: Q9UKT9 (peptide)
chain: FICPVCGANFTQKGNLLRHIKL
B8: Q9UKT9 (peptide)
chain: LTCPICGFLCTQKGNLLRHIKL
B9: Q9UKT9 (peptide)
chain: LLCEICGFPCTQKGNLLRHIKL
B10: Q9UKT9 (peptide)
chain: FICEICGHCFTQKGNLLRHIKL
B11: Q9UKT9 (peptide)
chain: FNCNQCGAMFTQKGNLLRHIKL
B12: Q9UKT9 (peptide)
chain: FLCDICGAQFTQKGNLLRHIKL
B13: Q9UKT9 (peptide)
chain: FTCEICGHYFTQKGNLLRHIKL
B14: Q9UKT9 (peptide)
chain: FACDICGAIFTQKGNLLRHIKL
B15: Q9UKT9 (peptide)
chain: FVCEICGHQFTQKGNLLRHIKL
B16: Q9UKT9 (peptide)
chain: FHCPVCGAYFTQKGNLLRHIKL
B17: Q9UKT9 (peptide)
chain: FYCPICGHRFTQKGNLLRHIKL
B18: Q9UKT9 (peptide)
chain: FNCPICGHPFTQKGNLLRHIKL
B19: Q9UKT9 (peptide)
chain: FACNQCGRDFTQKGNLLRHIKL
B20: Q9UKT9 (peptide)
chain: FICPICGHYFTQKGNLLRHIKL
B21: Q9UKT9 (peptide)
chain: FCCPQCGAWFTQKGNLLRHIKL
B22: Q9UKT9 (peptide)
chain: FYCEICGRNFTQKGNLLRHIKL
B23: Q9UKT9 (peptide)
chain: FECEVCGAQFTQKGNLLRHIKL
B24: Q9UKT9 (peptide)
chain: FECPVCGAIFTQKGNLLRHIKL
B25: Q9UKT9 (peptide)
chain: FICDVCGAIFTQKGNLLRHIKL
B26: Q9UKT9 (peptide)
chain: FTCDQCGASFTQKGNLLRHIKL
B27: Q9UKT9 (peptide)
chain: FWCPICGATFTQKGNLLRHIKL
B28: Q9UKT9 (peptide)
chain: FLCPQCGAQFTQKGNLLRHIKL
B29: Q9UKT9 (peptide)
chain: FWCEQCGAHFTQKGNLLRHIKL
B30: Q9UKT9 (peptide)
chain: FNCNQCGAHFTQKGNLLRHIKL
B31: Q9UKT9 (peptide)
chain: LYCEICGFVCTQKGNLLRHIKL
B32: Q9UKT9 (peptide)
chain: FSCDICGAFFTQKGNLLRHIKL
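Further: jurkat cells carrying a lentiviral library of mutant zinc finger degrons fused to EGFP plus mCherry, mCherry+ cells FACS sorted, degron abundance counted by next-generation sequencing.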

The target of the assay is no compound (DMSO). Kind of assay: log2 fold change of degron read counts, EGFP-low vs EGFP+ sorted cells; higher = lower degron-EGFP level without compound (poor expression or instability). Conditions: compound: DMSO control; 18 h.
With B1, the “log2 fold change of degron read counts” value was found to be 0.253.
In the case of B2, the “log2 fold change of degron read counts” value turned out to be 0.687.
Then B3, with -1.38.
For the sequence B4, the “log2 fold change of degron read counts” value was -0.369.
Take B5: the “log2 fold change of degron read counts” value was -0.938.
Turning to B6, the “log2 fold change of degron read counts” value is -0.819.
On to B7, for which the “log2 fold change of degron read counts” value amounted to 0.0773.
Consider B8, for which the “log2 fold change of degron read counts” value worked out at 1.21.
For B9, the “log2 fold change of degron read counts” value turned out to be 0.384.
With B10 the figure was -1.4.
Turning to B11, the “log2 fold change of degron read counts” value was -0.055.
With B12, the “log2 fold change of degron read counts” value was -1.09.
B13: the “log2 fold change of degron read counts” value was -0.889.
With B14, the “log2 fold change of degron read counts” value was -0.189.
Regarding B15, the “log2 fold change of degron read counts” value was -2.92.
Consider B16, for which the “log2 fold change of degron read counts” value turned out to be 0.484.
Turning to B17, the “log2 fold change of degron read counts” value is -2.39.
As to B18, the “log2 fold change of degron read counts” value is -0.0382.
As to B19, the “log2 fold change of degron read counts” value was determined as 0.153.
With B20 the figure was -0.0139.
B21: the “log2 fold change of degron read counts” value is 0.551.
Then B22, with -0.949; and B23, with -1.47; and B24, with -0.189.
With B25 the figure was -1.37.
Then B26, with -1.93; and B27, with 0.142; and B28, with -1.01.
With B29, the “log2 fold change of degron read counts” value was -0.893.
In the case of B30, the “log2 fold change of degron read counts” value is -0.233.
On to B31, for which the “log2 fold change of degron read counts” value came to 0.553.
B32: the “log2 fold change of degron read counts” value was -0.167.
